Assay results: the supplement of paper PMC10441789
The list shows a part of the results. Antibody binding of pooled human sera (four to six donors per pool; dilution not stated) to peptides of the Trypanosoma cruzi antigen TSSA on microarrays. Quantile-normalised fluorescence in arbitrary units, mean of duplicate arrays; higher = more binding. No active / inactive call. The uninfected pools are read here as the healthy donors of the same country. The strongest signals lie near the top of the scale (about 60,000).

How the values were obtained:
Assay in all cases: antibody binding signal (normalised fluorescence) (arbitrary fluorescence units); higher = stronger serum antibody binding to peptide
[1] = tested on: pooled sera of chronic Chagas disease patients, Argentina
Protocol: (§1)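 Microarray of overlapping 15-residue peptides of the four Trypanosoma cruzi TSSA reference variants and 8- to 13-residue peptides of TSSAII 24-62, probed with one serum pool per country.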

[2] = tested on: pooled sera of chronic Chagas disease patients, Bolivia
Protocol: as §1

[3] = tested on: pooled sera of chronic Chagas disease patients, Brazil
Protocol: as §1

[4] = tested on: pooled sera of chronic Chagas disease patients, Colombia
Protocol: as §1

[5] = tested on: pooled sera of chronic Chagas disease patients, Mexico
Protocol: as §1

[6] = tested on: pooled sera of chronic Chagas disease patients, USA
Protocol: as §1

[7] = tested on: pooled sera of uninfected people, Argentina
Protocol: as §1

[8] = tested on: pooled sera of uninfected people, Bolivia
Protocol: as §1

[9] = tested on: pooled sera of uninfected people, Colombia
Protocol: as §1

[10] = tested on: pooled sera of uninfected people, Mexico
Protocol: as §1

[11] = tested on: pooled sera of uninfected people, USA
Protocol: as §1

ENKPATGE
antibody binding signal [1]: 33200 | antibody binding signal [2]: 27400 | antibody binding signal [3]: 34100 | antibody binding signal [4]: 236 | antibody binding signal [5]: 530 | antibody binding signal [6]: 20000 | antibody binding signal [7]: 352 | antibody binding signal [8]: 940 | antibody binding signal [9]: 87.8 | antibody binding signal [10]: 123 | antibody binding signal [11]: 132

APSPSGASSGEAEAS
antibody binding signal [1]: 173 | antibody binding signal [2]: 230 | antibody binding signal [3]: 5050 | antibody binding signal [4]: 157 | antibody binding signal [5]: 463 | antibody binding signal [6]: 221 | antibody binding signal [7]: 303 | antibody binding signal [8]: 158 | antibody binding signal [9]: 139 | antibody binding signal [10]: 105 | antibody binding signal [11]: 311

QPGASSGEAEAS
antibody binding signal [1]: 227 | antibody binding signal [2]: 112 | antibody binding signal [3]: 8270 | antibody binding signal [4]: 90.5 | antibody binding signal [5]: 137 | antibody binding signal [6]: 136 | antibody binding signal [7]: 213 | antibody binding signal [8]: 126 | antibody binding signal [9]: 94.6 | antibody binding signal [10]: 82.3 | antibody binding signal [11]: 188

GEAPSQPGA
antibody binding signal [1]: 6760 | antibody binding signal [2]: 27600 | antibody binding signal [3]: 13000 | antibody binding signal [4]: 110 | antibody binding signal [5]: 155 | antibody binding signal [6]: 1680 | antibody binding signal [7]: 199 | antibody binding signal [8]: 171 | antibody binding signal [9]: 251 | antibody binding signal [10]: 261 | antibody binding signal [11]: 204

APSQPGASSGEAEAS
antibody binding signal [1]: 424 | antibody binding signal [2]: 438 | antibody binding signal [3]: 8260 | antibody binding signal [4]: 161 | antibody binding signal [5]: 853 | antibody binding signal [6]: 164 | antibody binding signal [7]: 261 | antibody binding signal [8]: 127 | antibody binding signal [9]: 146 | antibody binding signal [10]: 664 | antibody binding signal [11]: 182

TEKKAAAGEAPSPSG
antibody binding signal [1]: 728 | antibody binding signal [2]: 492 | antibody binding signal [3]: 2330 | antibody binding signal [4]: 707 | antibody binding signal [5]: 559 | antibody binding signal [6]: 12100 | antibody binding signal [7]: 172 | antibody binding signal [8]: 238 | antibody binding signal [9]: 129 | antibody binding signal [10]: 183 | antibody binding signal [11]: 216

GGSTSSTPP
antibody binding signal [1]: 261 | antibody binding signal [2]: 257 | antibody binding signal [3]: 276 | antibody binding signal [4]: 230 | antibody binding signal [5]: 218 | antibody binding signal [6]: 298 | antibody binding signal [7]: 200 | antibody binding signal [8]: 219 | antibody binding signal [9]: 137 | antibody binding signal [10]: 138 | antibody binding signal [11]: 90.3

PATGEAPS
antibody binding signal [1]: 43200 | antibody binding signal [2]: 51400 | antibody binding signal [3]: 44500 | antibody binding signal [4]: 144 | antibody binding signal [5]: 174 | antibody binding signal [6]: 28600 | antibody binding signal [7]: 798 | antibody binding signal [8]: 117 | antibody binding signal [9]: 116 | antibody binding signal [10]: 105 | antibody binding signal [11]: 111

PSQPGASSGEA
antibody binding signal [1]: 346 | antibody binding signal [2]: 221 | antibody binding signal [3]: 8170 | antibody binding signal [4]: 92.6 | antibody binding signal [5]: 194 | antibody binding signal [6]: 98.5 | antibody binding signal [7]: 121 | antibody binding signal [8]: 111 | antibody binding signal [9]: 95.5 | antibody binding signal [10]: 300 | antibody binding signal [11]: 87.6

STSSTPPSGTE
antibody binding signal [1]: 11400 | antibody binding signal [2]: 759 | antibody binding signal [3]: 9810 | antibody binding signal [4]: 435 | antibody binding signal [5]: 123 | antibody binding signal [6]: 102 | antibody binding signal [7]: 148 | antibody binding signal [8]: 93.1 | antibody binding signal [9]: 92.8 | antibody binding signal [10]: 119 | antibody binding signal [11]: 80.8

GGSTSSTPPGTDKKT
antibody binding signal [1]: 764 | antibody binding signal [2]: 1600 | antibody binding signal [3]: 8100 | antibody binding signal [4]: 5410 | antibody binding signal [5]: 1700 | antibody binding signal [6]: 15100 | antibody binding signal [7]: 140 | antibody binding signal [8]: 119 | antibody binding signal [9]: 185 | antibody binding signal [10]: 1480 | antibody binding signal [11]: 262
